# In the supplement of paper PMC7826260:
# The other results are listed elsewhere or left out. Viral Rep nickase domains cut single-stranded DNA in vitro (1 h at 37 °C, 3 µM enzyme); the outer parts of the 90-letter strands are left off. Values are log2 of uncut reads against the no-enzyme pool; strong cutting gives strongly negative numbers. There is no active / inactive call. Counts are relative to all reads; values above 0 arise when much of the pool is cut.
# Key:
# Assay in all cases: uncleaved DNA left, log2 of reads against the no-enzyme library (log2 ratio); higher = less cleavage (more negative = more Rep cleavage of the k-mer); sequences stand for … in CTCGTCCG…ACCGGAGA
# [1] = test system: T1, Rep nickase domain of Muscovy duck circovirus
# T1 sequence (Rep 1-111, printed without the tag): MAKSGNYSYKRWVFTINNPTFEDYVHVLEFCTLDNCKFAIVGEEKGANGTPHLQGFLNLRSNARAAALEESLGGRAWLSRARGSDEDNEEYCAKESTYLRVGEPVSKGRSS
# Description: (§1)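 A pool of 90-nt single-stranded DNAs with seven random bases just before the constant AC of the nick site (name = the seven bases) was cut by 3 µM recombinant His6-SUMO-tagged Rep nickase domain (300 nM DNA, 50 mM HEPES pH 8.0, 50 mM NaCl, 1 mM MnCl2, 1 h, 37 °C, three replicates). Uncut DNA was amplified and sequenced.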
# [2] = test system: T2, Rep nickase domain of banana bunchy top virus
# T2 sequence (Rep 1-94, printed without the tag): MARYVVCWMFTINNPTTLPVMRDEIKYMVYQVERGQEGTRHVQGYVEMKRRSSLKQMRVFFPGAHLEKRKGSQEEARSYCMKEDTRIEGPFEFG
# Description: as §1
# [3] = test system: T3, Rep nickase domain of cabbage leaf curl virus
# T3 sequence (Rep 1-116, printed without the tag): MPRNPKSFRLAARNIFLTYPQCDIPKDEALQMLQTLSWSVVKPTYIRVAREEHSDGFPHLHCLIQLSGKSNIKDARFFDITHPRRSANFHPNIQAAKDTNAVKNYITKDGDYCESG
# Description: as §1
# [4] = test system: T4, Rep nickase domain of chickpea chlorotic dwarf virus
# T4 sequence (Rep 1-124, printed without the tag): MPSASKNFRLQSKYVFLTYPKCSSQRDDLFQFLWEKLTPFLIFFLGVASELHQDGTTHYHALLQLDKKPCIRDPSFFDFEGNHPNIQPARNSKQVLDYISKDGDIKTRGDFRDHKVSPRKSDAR
# Description: as §1
# [5] = test system: T5, Rep nickase domain of faba bean necrotic yellows virus
# T5 sequence (Rep 1-98, printed without the tag): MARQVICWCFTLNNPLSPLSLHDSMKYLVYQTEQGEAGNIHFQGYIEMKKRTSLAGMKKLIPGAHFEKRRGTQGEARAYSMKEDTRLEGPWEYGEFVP
# Description: as §1
# [6] = test system: T6, Rep nickase domain of maize striate mosaic virus
# T6 sequence (Rep 1-117, printed without the tag): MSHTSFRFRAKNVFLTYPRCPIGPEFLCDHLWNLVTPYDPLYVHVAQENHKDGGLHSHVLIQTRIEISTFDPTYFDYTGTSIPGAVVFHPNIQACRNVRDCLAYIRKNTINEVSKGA
# Description: as §1
# [7] = test system: T7, Rep nickase domain of porcine circovirus 2
# T7 sequence (Rep 2-116, printed without the tag): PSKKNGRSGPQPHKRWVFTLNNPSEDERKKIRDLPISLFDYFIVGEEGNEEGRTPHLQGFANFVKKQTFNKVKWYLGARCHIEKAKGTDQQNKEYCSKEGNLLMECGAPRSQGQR
# Description: as §1
# [8] = test system: T8, Rep nickase domain of tomato golden mosaic virus
# T8 sequence (Rep 1-124, printed without the tag): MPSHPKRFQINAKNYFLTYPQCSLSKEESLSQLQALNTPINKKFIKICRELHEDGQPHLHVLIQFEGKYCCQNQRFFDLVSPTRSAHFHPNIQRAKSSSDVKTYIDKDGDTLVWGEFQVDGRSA
# Description: as §1
# [9] = test system: T9, Rep nickase domain of tomato yellow leaf curl virus
# T9 sequence (Rep 1-136, printed without the tag): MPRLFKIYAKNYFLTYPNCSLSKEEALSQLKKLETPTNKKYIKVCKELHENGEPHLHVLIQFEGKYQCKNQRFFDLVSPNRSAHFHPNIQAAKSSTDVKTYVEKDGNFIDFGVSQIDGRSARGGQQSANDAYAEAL
# Description: as §1
# [10] = test system: T10, Rep nickase domain of wheat dwarf virus
# T10 sequence (Rep 1-137, printed without the tag): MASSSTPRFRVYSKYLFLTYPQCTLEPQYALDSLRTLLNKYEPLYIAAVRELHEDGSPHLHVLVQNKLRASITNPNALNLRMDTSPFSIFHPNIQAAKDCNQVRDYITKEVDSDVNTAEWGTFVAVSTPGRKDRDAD
# Description: as §1
Sequence,uncleaved DNA left (log2) [1],uncleaved DNA left (log2) [2],uncleaved DNA left (log2) [3],uncleaved DNA left (log2) [4],uncleaved DNA left (log2) [5],uncleaved DNA left (log2) [6],uncleaved DNA left (log2) [7],uncleaved DNA left (log2) [8],uncleaved DNA left (log2) [9],uncleaved DNA left (log2) [10]
CCGCGGT,0.0296,-0.0577,0.139,-0.302,0.103,-0.243,0.00124,0.0213,-0.0659,0.0184
GGCGACA,-0.0716,0.0566,0.378,1.44,0.0171,1.98,0.0426,-0.0663,-0.077,0.0466
TTCGCGG,0.0784,0.0417,0.442,1.2,-0.00138,1.47,0.185,0.189,-0.12,0.0475
AATGGTG,0.0182,-0.0542,-0.24,-0.183,-0.0127,-0.547,0.0968,0.00653,-0.104,-0.0257
CTGAAAG,0.0575,0.0339,-0.742,-0.36,0.0549,-0.934,0.0373,0.0787,0.081,-0.0586
CAGGGCC,0.0601,0.0374,0.0559,0.165,0.0323,-0.211,0.0224,-0.0638,0.061,0.0612
CTAACCC,-0.388,0.0561,-0.332,-1.56,-0.0196,-0.509,-0.964,-0.171,-0.173,0.00155
CAAGTGA,0.00126,-0.112,-0.297,-0.396,0.0249,-0.954,0.0707,-0.0581,-0.0763,-0.0228
TAGGTCG,0.0397,0.109,-0.709,-0.606,0.0585,-0.946,0.111,0.0584,0.165,0.0485
TGAAAGG,0.102,0.15,0.485,1.25,0.171,1.26,0.271,0.132,0.073,0.176
CCACGAA,-0.107,-0.113,-0.17,-0.296,-0.0254,-0.919,-0.0467,-0.0858,-0.0923,-0.133
AATTATC,-0.134,-0.0984,0.11,-0.219,0.0366,-0.603,-1.2,0.0361,0.0984,0.095
ACACTCT,0.094,-0.012,-0.366,-2.53,-0.0267,-0.811,-0.076,0.0924,-0.059,-0.0965
ACATCGA,0.108,0.0617,-0.643,-0.499,0.029,-1.01,0.196,-0.0296,0.0093,-0.115
CGCAATG,-0.0631,0.096,0.333,1.49,-0.00365,1.44,-0.0327,0.0191,-0.189,0.101
CATGGTG,0.0383,0.0271,-0.541,-0.242,0.0692,-0.692,0.157,-0.0485,0.128,-0.0213
TCCTGGT,-0.206,0.0373,0.145,-0.0079,-0.0873,0.478,-1.69,-0.00237,0.00868,0.00417
GTTTAGG,-0.0146,0.032,0.523,1.3,-0.0186,1.76,0.202,0.175,-0.032,0.114
ATGTCCA,-0.0552,0.0236,-0.022,-1.02,-0.126,-0.375,-0.5,-0.00167,0.0622,0.0688
TTATCGC,0.00198,-0.0296,-0.493,-0.674,0.0311,-1.24,0.0998,-0.163,0.048,-0.0544
AGCTGAA,-0.041,-0.116,0.232,1.47,-0.0456,1.25,-0.0525,-0.0444,-0.0719,0.0141
CGCATGC,0.00789,0.0995,-0.397,-0.483,0.0246,-0.893,0.111,-0.00806,0.0441,0.0382
CGTAGTG,0.0618,0.0757,-0.196,0.119,0.142,-0.203,0.195,0.0532,0.0609,0.123
GGTACCG,0.0464,0.0273,-0.22,-0.297,-0.0114,-0.37,0.0274,-0.046,-0.0313,-1.17e-06
CCTACGA,0.0907,-0.113,-0.0652,-0.99,-0.0591,-0.85,0.147,0.0194,-0.0716,-0.0276
CGGCTAC,0.0407,-0.00493,0.0952,-0.0572,-0.174,0.513,0.125,-0.0311,0.0473,0.0585
ACCGCAC,-0.201,-0.249,-0.302,-0.442,-0.0726,-0.864,-0.0954,-0.039,-0.156,-0.12
GCAATTG,-0.174,-0.127,-0.566,-0.26,-0.0893,-0.931,0.101,-0.106,-0.111,-0.254
CAGCGTC,-0.115,-0.0571,-0.483,-0.712,-0.108,-0.892,0.0382,-0.0726,-0.0483,-0.131
GCGGGCC,-0.016,0.0552,0.473,1.16,-0.0226,1.54,0.0755,-0.0266,-0.00355,0.162
